# Values joined by “and” are separate entries in the source; they are usually repeats but may differ in a detail not shown here. Equal values may be shown once. About 50,000 (12%) of roughly 420,000 compounds were called active. The shares of active, inactive and inconclusive entries below differ from those in the screen. Calls follow the shape of the dose curve; as a rule, active = well fitted inhibition curve with a large enough effect; inconclusive = small, poorly fitted or top-dose-only effect; inactive = flat fitted curve, though single readings scatter. Potencies of inconclusive entries are doubtful fits and often do not repeat.
# Assay: qHTS for Inhibitors of human tyrosyl-DNA phosphodiesterase 1 (TDP1): qHTS in cells in presence of CPT; also: nearly all actives have a fitted effect of over 55% in size
# Settings: chicken DT40 Tdp1-/-;hTDP1 cells + 20 nM CPT, ATP luminescence, 48 h; activity change, negative = growth inhibition: at 46.2 µM (top of the series) unless noted
# How it was run: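 Cell growth measured by CellTiter-Glo luminescence after a minimum 48 h, 37 C compound exposure with 20 nM CPT in Tdp1-knockout DT40 cells stably expressing hTDP1, seeded 400/well; qHTS titration format.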
# % is scaled to controls: 0 for no effect and ±100 for the full control effect; potency is read from the fitted curve at half-maximal effect; tags tell the direction and shape of the fitted curve.
SMILES,Potency,"activity change, negative = growth inhibition"
CC(C)C[C@@H](CN1CCC[C@H]1CN1C(=O)C(=O)NC[C@@H]1Cc1ccccc1)N1C[C@H](Cc2ccc(O)cc2)N(CC2CCCCC2)C(=O)C1=O,"inconclusive: 29.1 µM [inhibitor, single point]",–
COc1cccc(CNC(=O)CSc2cc(=O)n(C)c3ccccc23)c1,–,inactive: 29.3%
Nc1nonc1-c1nc2ccccc2n1Cc1ccc(Br)cc1,–,inactive: -20.4%
CCNC(=O)C1(C)CCN(C(=O)c2ccc3c(c2)CCO3)C1 (stereo not given),"inconclusive: 0.326 µM [inhibitor, partial curve, poor fit]",–
CCN(CC)CCOC(=O)c1ccc(NC(=O)C(C)NC(=O)C23CC4CC(CC(C4)C2)C3)cc1 (stereo not given),"inconclusive: 2.59 µM [inhibitor, partial curve, poor fit]",–
CNC(=O)C(=O)NCC1OCCN1S(=O)(=O)c1ccc(OC)c(OC)c1 (stereo not given),–,inactive: 12.7%
CCN(CC)c1ccc(CNc2nnnn2C)cc1,–,inconclusive: -31.1% [inhibitor]
COc1ccc([N+](=O)[O-])cc1NC(=O)CSc1nc(C)c(C)c(C)n1,"inconclusive: 20.6 µM [inhibitor, single point]",–
Cc1ccc(NC(=O)CSc2nc3c(c(=O)[nH]2)CN(Cc2ccccc2)CC3)cc1Cl,"inconclusive: 23.1 µM [inhibitor, single point]",–
O=C(Nc1cc(Cl)c(Cl)cc1Cl)c1cccnc1,"inconclusive: 16.4 µM [inhibitor, single point]",–
O=C(NC1CCCCCC1)c1[nH]c(C(F)(F)F)nc1-c1ccccc1,–,inactive: -26.9%
CCCS(=O)c1nc(C)cc(C)c1S(C)(=O)=O (stereo not given),–,inactive: -21.3%
O=c1[nH]ncc(N2CCCC2)c1Cl,–,inactive: 6.09%
CCCOc1ccc(CC(=O)NCC2(c3ccccc3)CCOCC2)cc1OC,"inconclusive: 23.1 µM [inhibitor, single point]",–
CC(C)C(OC(=O)c1nsc(Cl)c1Cl)C(=O)NCC1CCCO1 (stereo not given),–,inactive: 3.88%
CC(CNC(=O)c1sc2ncccc2c1-n1cccc1)c1ccccc1 (stereo not given),"inconclusive: 20.6 µM [inhibitor, single point]",–
O=[N+]([O-])c1cc(Cl)cc(/C=N/Nc2nc3ccccc3s2)c1O,active: 0.326 µM,–
CC(C)(Oc1ccc(Cl)cc1)C(=O)Nc1cccc(-c2cn3cccnc3n2)c1,"inconclusive: 23.1 µM [inhibitor, single point]",–
CC(C)(C)S(=O)(=O)N1C[C@@H]2CC/C=C\C/C(c3ccccc3)=C\2[C@H]1CCO,"inconclusive: 23.1 µM [inhibitor, single point]",–
Cc1cccc(N2CCN(C(=O)CCc3nc4ccccc4c(=O)[nH]3)CC2)c1C,–,inactive: -8.22%
COc1ccc(N2CCN(C(=O)c3[nH]c(C(F)(F)F)nc3-c3ccccc3)CC2)cc1,"inconclusive: 29.1 µM [inhibitor, single point]",–
Cc1ccc(Nc2nc(-c3ccc(S(=O)(=O)N4CCOCC4)cc3)cs2)cc1Cl,active: 4.61 µM,–
COc1ccc(OCCC(=O)OCC(=O)NC(=O)NC2CCCCC2)cc1,–,inactive: -20.8%
Cc1cc(C)cc(NC(=O)c2ccc(NC(=O)C3C4CC5OC(=O)C3C5C4)cc2)c1 (stereo not given),–,inactive: 10.7%

SMILES,Potency,"activity change, negative = growth inhibition"
CCOC(=O)c1[nH]c2ccc(OC)cc2c1NC(=O)c1cccc(OC)c1,active: 23.1 µM,–
COc1cccc(C(=O)Nc2ccccc2N2CCN(C(=O)c3ccccc3)CC2)c1,"inconclusive: 20.6 µM [inhibitor, single point]",–
Cc1nc2scc(C)n2c(=O)c1S(=O)(=O)Nc1ccc(N2CCN(C(=O)C(C)C)CC2)cc1,"inconclusive: 23.1 µM [inhibitor, partial curve] and inconclusive: 20.6 µM [inhibitor, single point]",–
CCOc1ccc(/C=C/C(=O)NCCc2ccc(OC)c(OC)c2)cc1,"inconclusive: 29.1 µM [inhibitor, single point]",–
OC[C@H]1O[C@@H](c2nc3ccc(-c4nc(-c5ccc(Br)cc5)no4)cc3[nH]2)C[C@@H]1O,active: 16.4 µM,–
CN(C)/C=C1/NC(=S)NC1=O,–,inactive: -13.6%
CN(Cc1ccc(C(C)(C)C)cc1)C(=O)c1ccc2c(=O)n3c(nc2c1)CCC3,active: 20.6 µM,–
CN(C)c1ccc(/C=C2\C=Cc3ccccc32)cc1N,"inconclusive: 35.5 µM [inhibitor, single point]",–
Cc1ccc(CS(=O)Cc2ccc(C(=O)NC3CCCC(C)C3C)o2)cc1 (stereo not given),active: 20.6 µM,–
Cc1noc(C)c1NC(=O)Nc1cccc2c1O[C@H](CN(C)S(=O)(=O)c1ccccc1)[C@@H](C)CN([C@H](C)CO)C2=O,"inconclusive: 9.2 µM [inhibitor, partial curve, poor fit]",–
Cc1nn(CC(=O)Nc2ccc(N(C)C)cc2)c(C)c1[N+](=O)[O-],"inconclusive: 18.4 µM [inhibitor, single point]",–
CC(=O)C[C@@H](O)CC(=O)[C@H]1OC(=O)CCCCCCCCc2ccccc21,–,inactive: -20.3%
Cc1ccc(N=Cc2cc(Br)cc(Cl)c2O)cc1,"inconclusive: 23.1 µM [inhibitor, single point]",–
N#Cc1ccc[n+](CC(=O)c2ccc(Cl)cc2)c1,–,inactive: -10.5%
CC(C)S(=O)(=O)N1CCCC(c2cc(C(=O)Nc3ccc(F)c(Cl)c3)no2)C1 (stereo not given),"inconclusive: 13 µM [inhibitor, partial curve, poor fit]",–
CCOc1ccc(N2C(=O)CC(Sc3nccc(C)n3)C2=O)cc1 (stereo not given),"inconclusive: 29.1 µM [inhibitor, single point]",–
CN(C)C(=O)CCc1ccc2c3c([nH]c2c1)[C@]1(CCc2ccccc2)[C@@H](C(=O)N2CCCCC2)C[C@H](CC(=O)NCc2cccc(C(F)(F)F)c2)C(=O)N1CC3,"inconclusive: 18.4 µM [inhibitor, single point]",–
COc1ccc(C(=O)C[n+]2cccc3cc(OC)ccc32)cc1,"inconclusive: 10.3 µM [inhibitor, partial curve, poor fit]",–
COc1ccc(CCNC(=O)c2cccc(S(=O)(=O)N3CCCCC3)c2)cc1,"inconclusive: 16.4 µM [inhibitor, partial curve]",–
Cc1ccc2nc(NC(=O)c3ccc4ncsc4c3)sc2c1,"inconclusive: 16.4 µM [inhibitor, single point]",–
O=[N+]([O-])c1ccc(/C=N/n2c(C3CCCCC3)n[nH]c2=S)cc1,"inconclusive: 29.1 µM [inhibitor, single point]",–
COc1ccccc1N1CCN(C(=O)c2ccc(Cn3c(=O)[nH]c4ccsc4c3=O)cc2)CC1,"inconclusive: 29.1 µM [inhibitor, single point]",–
NC(=O)NC(=O)C[n+]1cccc(/C=N/O)c1,–,inactive: 6.35%
O=C(COc1ccccc1[N+](=O)[O-])Nc1cccc(Cl)c1N1CCOCC1,active: 16.4 µM,–

SMILES,Potency,"activity change, negative = growth inhibition"
CC(=O)c1cc(CN2CCC(n3nccc3NC(=O)c3ccccc3)CC2)cs1,–,inactive: 0.809%
CC(=O)Nc1ccc(C(=O)Nc2nc(-c3cccnc3)cs2)cc1,–,inactive: -27.7%
O=C(c1cc(S(=O)(=O)N2CCOCC2)ccc1Cl)N1CCCCC1CO (stereo not given),–,inactive: -19.5%
COC(=O)C1=C(CS(=O)(=O)c2cc(Cl)ccc2OC)NC(=O)NC1c1ccc(O)c(OC)c1 (stereo not given),–,inactive: -11.2%
Cc1c(C(=O)N2CCN(C(=O)c3ccco3)CC2)sc2nc(-c3ccc(F)cc3)cn12,"inconclusive: 25.9 µM [inhibitor, single point]",–
O=c1[nH]c2c(c(=O)n1-c1ccccc1)CCO2,–,inactive: -15.9%
COc1cccc(OC)c1C(=O)Nc1ccc([N+](=O)[O-])cn1,–,inactive: 1.07%
O=C(CC(c1cccs1)N1Cc2ccccc2C1=O)Nc1ccccc1F (stereo not given),"inconclusive: 29.1 µM [inhibitor, single point]",–
CC(=O)OC1CCC2(C)C(=CCC3C2CCC2(C)C3CC3ON=C(C)C32)C1 (stereo not given),"inconclusive: 29.1 µM [inhibitor, single point]",–
CCCNC(=O)CN1C(=O)NC(CCSC)C1=O (stereo not given),–,inactive: 1.6%
Cc1cc2oc(C(=O)N3CCN(CCc4ccccn4)CC3)c(C)c2cc1C,"inconclusive: 29.1 µM [inhibitor, single point]",–
CCCCOc1ccc(-c2ncc(N)cn2)cc1,–,inactive: -0.848%
CCCc1cc(=O)oc2cc(OCC(=O)Nc3cc(C)on3)ccc12,–,inactive: -14%
Cc1ccccc1Oc1ncnc2oc(-c3ccccc3)cc12,–,inactive: -25.6%
O=C(CCS(=O)(=O)c1cccs1)Nc1ccc(C(=O)NC2CCN(Cc3ccccc3)CC2)cc1,"inconclusive: 16.4 µM [inhibitor, single point]",–
Cc1cccc(-n2ccnc2SCC(=O)N2CCCc3ccccc32)c1C,active: 18.4 µM,–
O=C(NCCc1ccccc1)c1cccc2c1C(=O)c1ccc(N3CCOCC3)cc1S2(=O)=O,"inconclusive: 29.1 µM [inhibitor, single point]",–
Cc1ccc(CSC2=Nc3ccccc3C3=NC(CCC(=O)NCCc4ccccc4)C(=O)N23)cc1 (stereo not given),"inconclusive: 29.1 µM [inhibitor, single point]",–
O=C(Nc1ccc(N2CCN(C(=O)c3ccco3)CC2)cc1)c1ccc([N+](=O)[O-])cc1Cl,"inconclusive: 18.4 µM [inhibitor, single point]",–
O=CN1N=C(c2ccccc2)CC1c1ccccc1[N+](=O)[O-] (stereo not given),"inconclusive: 29.1 µM [inhibitor, single point]",–
Cc1ccc(NC(=O)CN2C(=O)CSc3ccc(S(=O)(=O)N(C)C)cc32)cc1C,active: 16.4 µM,–
O=C(Nc1cccc(-c2nnc(-c3ccco3)o2)c1)C(c1ccccc1)c1ccccc1,"inconclusive: 20.6 µM [inhibitor, single point]",–

# Reference: PubChem BioAssay AID686979 (National Center for Advancing Translational Sciences (NCATS), 2013)
